Reference: the antibiotic and cytotoxicity screens of Wong et al. (2023)
The other results are listed elsewhere or left out.

Legend:
[1] = tested on: HSkMC (human skeletal muscle cells); experiment: cytotoxicity call (relative viability < 0.9); conditions: 10 µM
[2] = tested on: HepG2; experiment: cytotoxicity call (relative viability < 0.9); conditions: 10 µM
[3] = tested on: S. aureus RN4220; experiment: growth inhibition call (relative growth <= 0.2); conditions: 50 µM

Row | SMILES | cytotoxicity call [1] | cytotoxicity call [2] | growth inhibition call [3]
1 | Cc1noc(C)c1NC(=O)N(C)C[C@H]1Oc2ccc(NC(=O)c3ccncc3)cc2CC(=O)N([C@@H](C)CO)C[C@H]1C | inactive | inactive | inactive
2 | Cc1ccc(S(=O)(=O)Nc2ccc3c(c2)C(=O)N([C@H](C)CO)C[C@H](C)[C@@H](CN(C)C(=O)C2CCCCC2)OCCCC[C@@H](C)O3)cc1 | inactive | inactive | inactive
3 | O=C(C[C@H]1CC[C@@H](NC(=O)Cc2ccccn2)[C@@H](CO)O1)NCCCN1CCOCC1 | inactive | inactive | inactive
4 | C[C@H](CO)N1C[C@H](C)[C@@H](CN(C)C(=O)Nc2ccccc2)Oc2ccc(NS(C)(=O)=O)cc2C1=O | inactive | inactive | inactive
5 | C[C@H](CO)N1C[C@H](C)[C@@H](CN(C)Cc2ccc(C(F)(F)F)cc2)OCCCC[C@H](C)Oc2ccc(NC(=O)NC3CCCCC3)cc2C1=O | active | active | inactive
6 | CC1CCN(C(=O)N2c3ccccc3Sc3ccccc32)CC1 | inactive | inactive | inactive
7 | CC(C)NC(=O)N(C)C[C@H]1OCCCC[C@H](C)Oc2ccc(NC(=O)Nc3ccc(C(F)(F)F)cc3)cc2C(=O)N([C@@H](C)CO)C[C@H]1C | inactive | inactive | inactive
8 | C[C@H]1CN([C@@H](C)CO)C(=O)c2cc(NC(=O)Nc3ccc(C(F)(F)F)cc3)ccc2O[C@@H]1CN(C)Cc1ccc(C(=O)Nc2ccccc2N)cc1 | inactive | inactive | inactive
9 | COc1ccc(S(=O)(=O)Nc2ccc3c(c2)C(=O)N([C@@H](C)CO)C[C@@H](C)[C@H](CN(C)S(=O)(=O)c2ccc(C)cc2)O3)cc1 | inactive | inactive | inactive
10 | C[C@H]1CN([C@@H](C)CO)S(=O)(=O)c2ccc(C#CC3(O)CCCC3)cc2O[C@@H]1CN(C)C(=O)c1ccccc1 | inactive | inactive | inactive
11 | C[C@H](CO)N1C[C@H](C)[C@H](CN(C)C(=O)Cc2ccccc2)OCCCC[C@H](C)Oc2ccc(NC(=O)NC3CCCCC3)cc2C1=O | inactive | inactive | inactive
12 | Cc1noc(C)c1S(=O)(=O)Nc1ccc2c(c1)C(=O)N([C@H](C)CO)C[C@H](C)[C@H](CN(C)S(=O)(=O)c1cn(C)cn1)O2 | inactive | inactive | inactive
13 | C[C@@H]1CN([C@H](C)CO)C(=O)c2c(c3ccccc3n2C)-c2ccccc2CO[C@H]1CN(C)C(=O)Nc1ccccc1 | inactive | inactive | inactive
14 | O=C(O)CNC(=O)c1ccccc1 | inactive | inactive | inactive
15 | Cc1ccc(S(=O)(=O)Nc2ccc3c(c2)CC(=O)N([C@H](C)CO)C[C@@H](C)[C@H](CN(C)C(=O)Nc2cccc4ccccc24)O3)cc1 | inactive | inactive | inactive
16 | C[C@@H]1CN([C@@H](C)CO)C(=O)Cc2cc(NC(=O)Nc3cccc4ccccc34)ccc2O[C@@H]1CN(C)C(=O)Nc1ccc(F)cc1 | inactive | inactive | inactive
17 | CO[C@H]1CN(C)C(=O)c2cc(NC(=O)c3ccccc3)ccc2OC[C@@H](C)N(C(=O)CN(C)C)C[C@@H]1C | inactive | inactive | inactive
18 | C[C@@H]1CN([C@H](C)CO)C(=O)Cc2cc(NS(=O)(=O)c3ccc(F)cc3)ccc2O[C@@H]1CN(C)S(C)(=O)=O | inactive | inactive | inactive
19 | CO[C@H]1C[C@@H]2CC[C@@H](C)[C@@](O)(O2)C(=O)C(=O)N2CCCC[C@H]2C(=O)O[C@H]([C@H](C)C[C@@H]2CC[C@@H](O)[C@H](OC)C2)CC(=O)[C@H](C)/C=C(\C)[C@@H](O)[C@@H](OC)C(=O)[C@H](C)C[C@H](C)/C=C/C=C/C=C/1C | inactive | inactive | inactive
20 | C[C@H]1CN([C@@H](C)CO)C(=O)c2cccc(NC(=O)Nc3cccc4ccccc34)c2O[C@H]1CN(C)S(=O)(=O)c1ccccc1 | inactive | inactive | inactive
21 | COC(=O)c1c(CC[C@@H](CO)NC(=O)N[C@@H](Cc2ccccc2)Cn2cc(-c3cncn3C)nn2)oc(C(C)=O)c1C(=O)OC | inactive | inactive | inactive
22 | COCC(=O)N(C)C[C@@H]1Oc2cc(C#CCC3CCCC3)ccc2S(=O)(=O)N([C@H](C)CO)C[C@@H]1C | inactive | inactive | inactive
23 | C[C@H]1CN([C@@H](C)CO)C(=O)c2cc(NC(=O)Cc3ccccc3)ccc2O[C@H]1CN(C)Cc1ccc(-c2ccccc2)cc1 | inactive | inactive | inactive
